Laboratory results: PubChem BioAssay AID1347165 (National Center for Advancing Translational Sciences (NCATS), 2019)
In all, about 220,000 compounds went through this assay and about 5,700 (2.6%) were called active. The inconclusive results got no clear call from the source; some entries with a clear call stand among them for comparison. Calls follow the shape of the dose curve; as a rule, active = well fitted inhibition curve with a large enough effect; inconclusive = small, poorly fitted or top-dose-only effect; inactive = no such curve, though single readings can be large or run the other way. A potency beside an inconclusive call is a rough fit, not a confirmed value.

molecular target: Lysine-specific demethylase 5B (Homo sapiens) (UniProt Q9UGL1); assay: Primary screen for KDM5B Histone Demethylases FDH-coupled qHTS; details: FDH-coupled NADH fluorescence (FDH is formaldehyde dehydrogenase); activity change, negative = inhibition: at 57.7 µM (top of the series) unless noted; also: nearly all actives have a fitted effect of over 70% in size; as to activity change, negative = inhibition: 0% is about no effect
Chain of UniProt Q9UGL1 (Q9UGL1 whole entry, looked up): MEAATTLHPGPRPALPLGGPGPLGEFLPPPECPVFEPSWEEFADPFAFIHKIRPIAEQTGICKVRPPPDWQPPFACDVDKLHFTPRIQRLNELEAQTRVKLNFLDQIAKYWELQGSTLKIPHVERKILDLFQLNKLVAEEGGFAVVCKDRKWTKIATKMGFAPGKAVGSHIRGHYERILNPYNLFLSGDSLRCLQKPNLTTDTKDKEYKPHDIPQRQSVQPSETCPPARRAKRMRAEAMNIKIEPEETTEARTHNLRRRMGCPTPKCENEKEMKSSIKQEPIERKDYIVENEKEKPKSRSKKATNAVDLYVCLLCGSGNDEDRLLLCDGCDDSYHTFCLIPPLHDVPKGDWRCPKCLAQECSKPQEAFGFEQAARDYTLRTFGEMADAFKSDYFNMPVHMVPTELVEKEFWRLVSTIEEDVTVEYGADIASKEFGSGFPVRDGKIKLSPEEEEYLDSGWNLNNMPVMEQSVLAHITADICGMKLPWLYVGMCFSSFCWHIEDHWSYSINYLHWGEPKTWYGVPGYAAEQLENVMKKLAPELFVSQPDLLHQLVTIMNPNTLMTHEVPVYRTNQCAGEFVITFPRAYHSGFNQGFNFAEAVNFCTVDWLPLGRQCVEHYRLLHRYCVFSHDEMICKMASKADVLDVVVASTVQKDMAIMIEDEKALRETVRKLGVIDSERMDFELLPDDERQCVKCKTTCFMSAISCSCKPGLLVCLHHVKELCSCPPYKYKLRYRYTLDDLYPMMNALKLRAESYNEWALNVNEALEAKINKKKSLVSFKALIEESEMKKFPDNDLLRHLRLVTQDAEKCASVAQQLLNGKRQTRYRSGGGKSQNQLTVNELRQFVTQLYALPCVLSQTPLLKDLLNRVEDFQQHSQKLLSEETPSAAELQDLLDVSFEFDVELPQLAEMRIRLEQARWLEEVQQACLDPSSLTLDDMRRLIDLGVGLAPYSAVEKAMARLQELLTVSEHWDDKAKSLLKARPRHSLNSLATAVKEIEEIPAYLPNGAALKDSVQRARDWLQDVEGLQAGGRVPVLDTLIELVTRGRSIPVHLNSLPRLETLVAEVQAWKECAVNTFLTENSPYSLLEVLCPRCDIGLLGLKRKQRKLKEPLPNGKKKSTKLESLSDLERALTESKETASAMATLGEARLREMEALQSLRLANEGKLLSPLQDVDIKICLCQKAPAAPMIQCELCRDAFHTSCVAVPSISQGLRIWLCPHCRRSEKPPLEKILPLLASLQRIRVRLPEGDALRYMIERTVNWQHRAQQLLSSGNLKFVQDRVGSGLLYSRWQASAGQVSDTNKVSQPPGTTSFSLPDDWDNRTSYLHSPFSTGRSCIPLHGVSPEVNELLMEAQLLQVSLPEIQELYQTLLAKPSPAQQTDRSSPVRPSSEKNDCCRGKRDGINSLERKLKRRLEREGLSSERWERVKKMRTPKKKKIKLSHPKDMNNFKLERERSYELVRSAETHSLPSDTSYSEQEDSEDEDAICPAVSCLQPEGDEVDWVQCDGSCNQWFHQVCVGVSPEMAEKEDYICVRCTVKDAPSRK
Outline: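 Here, H3K4me3 peptide (12.5 µM in substrate mix) is demethylated by KDM5BΔAP, 200 nM final, after 10 min compound exposure. Formaldehyde product is coupled through FDH (0.25 U/mL in mix) to NADH fluorescence; 30-min ΔRFU feeds dose-response curves.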
Potency is read from the fitted curve at half-maximal effect; tags tell the direction and shape of the fitted curve.

| SMILES | Potency | activity change, negative = inhibition |
| --- | --- | --- |
| CCOc1ccccc1CN1CCC2(CCN(CCC(C)C)CC2)Oc2ccccc21 | inconclusive: 15.8 µM [inhibitor, partial curve] |  |
| CCN(CC)CCNc1ncnc2c1oc1nc(C)c3c(c12)CC(C)(C)OC3 | inconclusive: 22.4 µM [inhibitor, partial curve, poor fit] |  |
| COc1ccccc1OC(C)C(=O)Nc1cccc(-c2nc3ccccc3s2)c1 (centres undefined) | inconclusive: 31.6 µM [inhibitor, partial curve, poor fit] |  |
| COCCN1Cc2nc(-c3ccsc3)ccc2OCC1=O | inconclusive: 35.5 µM [inhibitor, single point] |  |
| CCOc1cc(C(=O)Nc2ccc(N3CCCC3)c(Cl)c2)cc(OCC)c1OCC | inconclusive: 39.8 µM [inhibitor, single point] |  |
| CCCCCn1c(NCc2ccc(OC)cc2)nc2ccccc21 | inconclusive: 25.1 µM [inhibitor, partial curve, poor fit] |  |
| O=c1cc(-c2cccnc2)nc(-c2ccc(CN3CC[C@@H](O)C3)cc2)[nH]1 |  | inactive: -11.9% |
| CCOc1ccc(C(=O)Cn2c(=O)n3nc(CCn4nc(C)cc4C)nc3c3cc(OC)c(OC)cc32)cc1 |  | inconclusive: -33.7% [inhibitor] |
| Cc1ccccc1N1CCN(S(=O)(=O)c2nnc(NC(=O)c3ccc(C(C)C)cc3)s2)CC1 | inconclusive: 44.7 µM [inhibitor, single point] |  |
| Cc1ccc(NC(=O)C(C)OC(=O)C2=CN3CCS(=O)(=O)N=C3C=C2)cc1 (centres undefined) | inconclusive: 25.1 µM [inhibitor, partial curve, poor fit] |  |
| COc1cc(NC(=O)c2cc(C3CC3)nc3c2c(C)nn3-c2ccccc2)cc(OC)c1 | inconclusive: 35.5 µM [inhibitor, partial curve, poor fit] |  |
| CC(C)C(=O)N1Cc2ccccc2CC2(CCCCN2Cc2ccccn2)C1 (centres undefined) | inconclusive: 56.2 µM [inhibitor, partial curve, poor fit] |  |
| N#Cc1nc(-c2ccc(S(=O)(=O)N3CCCCCC3)cc2)oc1NCCN1CCOCC1 | inconclusive: 2 µM [inhibitor, full curve, poor fit] |  |
| COc1ccc(NC(=O)Cn2c(=O)n(-c3cc(C)cc(C)c3)c(=O)c3oc4ccccc4c32)cc1OC | inconclusive: 2.24 µM [inhibitor, partial curve, poor fit] |  |
| CC(C)c1ccc(-n2ccnc(NCc3ccc(F)cc3)c2=O)cc1 | inconclusive: 31.6 µM [inhibitor, single point] |  |
| COCCCNc1nc(NCc2ccccc2OC)c2cnn(C)c2n1 | inconclusive: 28.2 µM [inhibitor, partial curve, poor fit] |  |
| COCC1CN(C)CC12CCN(C(=O)c1cnco1)CC2 (centres undefined) | inconclusive: 28.2 µM [inhibitor, partial curve, poor fit] |  |
| O=S(=O)(c1ccc2ccccc2c1)N(Cc1ccco1)Cc1cccs1 | inconclusive: 39.8 µM [inhibitor, single point] |  |
| COCCNC(=O)CCC(=O)NNc1nc2ccccc2c2nc(C)nn12 |  | inconclusive: -33.8% [inhibitor] |
| CCO[C@H]1COC[C@@H]1NC(=O)c1csc(-c2cccs2)n1 | inconclusive: 25.1 µM [inhibitor, single point] |  |
| CCCCn1c(=O)[nH]c(=O)c2c1nc(CCC(=O)N1CCCCC1C)n2CC(C)C (centres undefined) |  | inactive: 21.3% |
| CCOC(=O)COc1nc2c(c(-c3ccco3)c1C#N)CCc1ccccc1-2 | inconclusive: 28.2 µM [inhibitor, partial curve, poor fit] |  |

| SMILES | Potency | activity change, negative = inhibition |
| --- | --- | --- |
| COCCN(Cc1cccs1)C(=O)COc1ccc2c(C)cc(=O)oc2c1 | inconclusive: 31.6 µM [inhibitor, partial curve, poor fit] |  |
| CN(Cc1cccnc1)c1ccc2ncc(Nc3cccc(N[S+](C)(=O)[O-])c3)n2n1 | active: 17.8 µM |  |
| CSc1cccc(NC(=O)N2CCC(c3cc(-c4cccc(C)c4)n[nH]3)CC2)c1 | inconclusive: 3.98 µM [inhibitor, full curve] |  |
| C=CCn1ncc(CN2CCC(c3nnc(Cn4ccnc4C)n3C)CC2)c1C |  | inactive: 28.4% |
| CCOC(=O)C1CCN(C(=O)c2ccc(CN(c3ccccc3)S(C)(=O)=O)cc2)CC1 |  | inactive: 16.5% |
| COc1ccc(C2C(C(=O)Nc3ccccc3)=C(C)Nc3c(C(=O)Nc4ccccc4)cnn32)cc1 (centres undefined) | inconclusive: 31.6 µM [inhibitor, partial curve, poor fit] |  |
| COc1ccc(CN2C(=Nc3ccc(Cl)cc3)S[C@H]3[C@@H]2[C@@H](O)[C@H](O)C[C@@H]3C(N)=O)cc1 | inconclusive: 31.6 µM [inhibitor, partial curve, poor fit] |  |
| Cc1ccc2c(C(=O)O)cc(-c3cccnc3)nc2c1C | inconclusive: 10 µM [inhibitor, partial curve, poor fit] |  |
| COCCN1C(=O)c2ccccc2C(C(=O)NCCC(C)C)C12CCCC2 (centres undefined) | inconclusive: 20 µM [inhibitor, partial curve, poor fit] |  |
| COC(=O)[C@@H]1Cc2ncn(C(C)C)c2CN1S(=O)(=O)c1ccccc1 | inconclusive: 35.5 µM [inhibitor, single point] |  |
| Cc1ccc(S(=O)(=O)n2nc(C)c(S(=O)(=O)N3CCCCCC3)c2C)cc1 | inconclusive: 35.5 µM [inhibitor, single point] |  |
| CCc1ccccc1S(=O)(=O)N1CCN(C2(CC)CCN(C(=O)NC)C2)CC1 (centres undefined) |  | inactive: -26.9% |
| O=C(NC1=N[C@@]2(C=C3CCCCC3n3c(=O)n(-c4ccccc4)c(=O)n32)[C@H](Cc2ccccc2)N1Cc1ccccc1)c1ccccc1 (some centres undefined) | inconclusive: 39.8 µM [inhibitor, single point] |  |
| Cc1cc2c(n1-c1ccc(C(=O)NCCc3ccc(Cl)cc3)cc1)CCCC2 | inconclusive: 17.8 µM [inhibitor, partial curve, poor fit] |  |
| O=C(CNC(=O)N1CC(=O)Nc2ccccc21)Nc1ccc2c(c1)OCO2 |  | inactive: -22% |
| CCC1c2ccsc2CCN1C(=O)CNC(=O)c1ccccc1Cl (centres undefined) |  | inactive: -7.11% |
| CCOc1ccc(CNC(=O)c2cccc(NC(=O)N3CCSc4ncccc43)c2)cc1OC | inconclusive: 28.2 µM [inhibitor, partial curve, poor fit] |  |
| CCOc1ccccc1CNC(=O)c1cc2n(n1)CC(c1ccc(Cl)cc1)OC2 (centres undefined) | inconclusive: 28.2 µM [inhibitor, partial curve, poor fit] |  |
| COc1cc(-c2nc(-c3cccc(Br)c3)no2)cc(OC)c1OC |  | inactive: 17.7% |
| CN1CCN(NC(=O)c2cc(-c3ccc(Cl)s3)nc3ccccc23)CC1 | inconclusive: 25.1 µM [inhibitor, partial curve, poor fit] |  |
| CCc1ccc2oc(C(=O)NCC(c3cccs3)N3CCCCC3)cc(=O)c2c1 (centres undefined) |  | inactive: 1.37% |
| CCOc1ccc2nc(SCC(=O)NCC3CCCO3)c(C#N)cc2c1 (centres undefined) | inconclusive: 17.8 µM [inhibitor, partial curve, poor fit] |  |

| SMILES | Potency | activity change, negative = inhibition |
| --- | --- | --- |
| O=C(O)CCCCCCNS(=O)(=O)Cc1ccccc1 |  | inactive: -16.9% |
| C#CC(C)(CC)NC(=O)/C=C/c1cc(OC)c(OC)c(OC)c1 (centres undefined) | inconclusive: 39.8 µM [inhibitor, single point] |  |
| Cc1cc(N2CCC(C)CC2)nc(-c2ccccc2O)n1 | inconclusive: 39.8 µM [inhibitor, partial curve, poor fit] |  |
| CN(Cc1ccsc1)Cc1ccccc1C(F)(F)F |  | inactive: -16.4% [at 86.2 µM] |
| O=C(O)c1ccc(CSc2cc(Cl)ccc2Cl)cc1 |  | inactive: 5.55% |
| CCOC(=O)C1=C(CN2CCN(c3ccc(OC)cc3)CC2)NC(=O)NC1c1ccc(OC)cc1 (centres undefined) | inconclusive: 1.78 µM [inhibitor, full curve, poor fit] |  |
| CCN(CC)CCCNc1oc(/C=C/c2ccc(OC)c(OC)c2)nc1C#N | inconclusive: 31.6 µM [inhibitor, partial curve, poor fit] |  |
| Cc1noc(C)c1-c1cc2cc(C(C)C)oc2c(NC2CCN(C)CC2)n1 |  | inactive: -22% [at 86.2 µM] |
| COc1ccc(NC(=O)Cn2cc(S(=O)(=O)N3CCN(c4ccccc4F)CC3)c3ccccc3c2=O)cc1Cl | inconclusive: 17.8 µM [inhibitor, partial curve, poor fit] |  |
| CCOc1ccc(-c2cc(C(=O)N3CCN(c4cc(Cl)ccc4C)CC3)c3ccccc3n2)cc1 |  | inactive: 3.37% |
| COc1cc2c(cc1OC)C(c1ccc(Cl)c(Cl)c1)C1=C(CCCC1=O)N2 (centres undefined) | inconclusive: 28.2 µM [inhibitor, partial curve, poor fit] |  |
| COc1ccc(Cc2nc3nccc(-c4ccc(F)cc4)n3n2)cc1 |  | inactive: -0.124% |
| O=C(c1cc(Cl)ccc1F)N1CCCC(n2cc(-c3nc(-c4ccccc4)no3)nn2)C1 (centres undefined) |  | inactive: -28.9% |
| O=C(COc1ccccc1Cl)N1CCCC(O)(CN2CCCC2)C1 (centres undefined) |  | inactive: -28.9% |
| COc1ccccc1OCCn1c(NC(=O)c2ccccc2Cl)nc2ccccc21 | inconclusive: 39.8 µM [inhibitor, single point] |  |
| COc1ccc(-c2ccnc(N[C@H]3CO[C@H]4[C@@H]3OC[C@@H]4NC(=O)Nc3cccc(C(F)(F)F)c3)n2)cc1 | inconclusive: 15.8 µM [inhibitor, partial curve] |  |
| CCCc1ccc(C(=O)O)s1 |  | inactive: 6.8% |
| Cc1cc(C)c(Nc2nc3ccccc3n3c(C)nnc23)c(C)c1 | inconclusive: 35.5 µM [inhibitor, single point] |  |
| Cc1ccc(CNC(=O)CCc2ccccc2)cn1 |  | inactive: -5.61% |
| COC(=O)c1cc(-c2ccco2)nc2ccccc12 | inconclusive: 28.2 µM [inhibitor, partial curve, poor fit] |  |
